# From the supplement of paper PMC8728848
# This is one part of the list.
# B1: Als3-N (Candida albicans) (protein)
# chain: KTITGVFNSFNSLTWSNAATYNYKGPGTPTWNAVLGWSLDGTSASPGDTFTLNMPCVFKFTTSQTSVDLTAHGVKYATCQFQAGEEFMTFSTLTCTVSNTLTPSIKALGTVTLPLAFNVGGTGSSVDLEDSKCFTAGTNTVTFNDGGKKISINVDFERSNVDPKGYLTDSRVIPSLNKVSTLFVAPQCANGYTSGTMGFANTYGDVQIDCSNIHVGITKGLNDWNYPVSSESFSYTKTCSSNGIFITYKNVPAGYRPFVDAYISATDVNSYTLSYANEYTCAGGYWQRAPFTLRWTGYRNSDAGSNGIVIVATTRTVTDSTTAVTTLPFDPNRDKTKTIEILKPIPTTTITTSYVGVTTSYLTKTAPIGETATVIVDIPYHTTTTVTSKWTGTITSTTTHTNPTDSIDTVIVQVP
# Experiments:
# Experiment in all cases: glycan array binding signal (z-score within array); higher = stronger binding
# Settings in all cases: glycan notation: IUPAC condensed, linker removed
# [1] = target: Fuc(a1-2)[GalNAc(a1-3)]Gal(b1-3)GlcNAc(b1-3)GalNAc
# Method in brief: (§1)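 Glycan array data were curated from 3228 arrays in the Consortium for Functional Glycomics database and kept only where the protein sequence was available. Glycan names were converted to IUPAC-condensed notation, and columns mapping to the same glycan were averaged. The binding signal is a within-array Z-score, averaged across arrays of the same protein sequence at different concentrations or buffers and across linkers. Negative Z-scores can be read as non-binding.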
# [2] = target: Fuc(a1-2)[GalNAc(a1-3)]Gal(b1-3)GlcNAc(b1-6)GalNAc
# Method in brief: as §1
# [3] = target: Fuc(a1-2)[GalNAc(a1-3)]Gal(b1-4)Glc
# Method in brief: as §1
# [4] = target: Fuc(a1-2)[GalNAc(a1-3)]Gal(b1-4)GlcNAc
# Method in brief: as §1
# [5] = target: Fuc(a1-2)[GalNAc(a1-3)]Gal(b1-4)GlcNAc(b1-2)Man
# Method in brief: as §1
# [6] = target: Fuc(a1-2)[GalNAc(a1-3)]Gal(b1-4)GlcNAc(b1-2)Man(a1-3)[Fuc(a1-2)[GalNAc(a1-3)]Gal(b1-4)GlcNAc(b1-2)Man(a1-6)]Man(b1-4)GlcNAc(b1-4)GlcNAc
# Method in brief: as §1
# [7] = target: Fuc(a1-2)[GalNAc(a1-3)]Gal(b1-4)GlcNAc(b1-2)Man(a1-3)[Fuc(a1-2)[GalNAc(a1-3)]Gal(b1-4)GlcNAc(b1-2)Man(a1-6)]Man(b1-4)GlcNAc(b1-4)[Fuc(a1-6)]GlcNAc
# Method in brief: as §1
# [8] = target: Fuc(a1-2)[GalNAc(a1-3)]Gal(b1-4)GlcNAc(b1-3)Gal(b1-4)GlcNAc
# Method in brief: as §1
# [9] = target: Fuc(a1-2)[GalNAc(a1-3)]Gal(b1-4)GlcNAc(b1-3)Gal(b1-4)GlcNAc(b1-3)Gal(b1-4)GlcNAc
# Method in brief: as §1
# [10] = target: Fuc(a1-2)[GalNAc(a1-3)]Gal(b1-4)GlcNAc(b1-3)GalNAc
# Method in brief: as §1
# [11] = target: Fuc(a1-2)[GalNAc(a1-3)]Gal(b1-4)GlcNAc(b1-3)[Fuc(a1-2)[GalNAc(a1-3)]Gal(b1-4)GlcNAc(b1-6)]GalNAc
# Method in brief: as §1
# [12] = target: Fuc(a1-2)[GalNAc(a1-3)]Gal(b1-4)GlcNAc(b1-6)GalNAc
# Method in brief: as §1
# [13] = target: Fuc(a1-2)[GalNAc(a1-3)]Gal(b1-4)[Fuc(a1-3)]GlcNAc
# Method in brief: as §1
# [14] = target: Fuc(a1-2)[GalNAc(a1-3)]Gal(b1-4)[Fuc(a1-3)]GlcNAc(b1-3)GalNAc
# Method in brief: as §1
# [15] = target: Fuc(a1-2)[GalNAc(a1-4)]Gal(b1-4)GlcNAc
# Method in brief: as §1
# [16] = target: Fuc(a1-2)[GalNAc(b1-3)]Gal
# Method in brief: as §1
# Fuc(a1-3)GlcNAc = target: Fuc(a1-3)GlcNAc
# Method in brief: as §1
# [17] = target: Fuc(a1-3)[Gal(b1-4)]Glc6S
# Method in brief: as §1
# [18] = target: Fuc(a1-3)[Gal(b1-4)]GlcNAc
# Method in brief: as §1
# [19] = target: Fuc(a1-3)[Gal(b1-4)]GlcNAc(b1-2)Man
# Method in brief: as §1
# [20] = target: Fuc(a1-3)[Gal(b1-4)]GlcNAc(b1-2)Man(a1-3)[Fuc(a1-3)[Gal(b1-4)]GlcNAc(b1-2)Man(a1-6)]Man(b1-4)GlcNAc(b1-4)GlcNAc
# Method in brief: as §1
# [21] = target: Fuc(a1-3)[Gal(b1-4)]GlcNAc(b1-2)Man(a1-3)[Fuc(a1-3)[Gal(b1-4)]GlcNAc(b1-2)Man(a1-6)]Man(b1-4)GlcNAc(b1-4)[Fuc(a1-6)]GlcNAc
# Method in brief: as §1
# [22] = target: Fuc(a1-3)[Gal(b1-4)]GlcNAc(b1-3)Gal(b1-3)[Fuc(a1-4)]GlcNAc
# Method in brief: as §1
# [23] = target: Fuc(a1-3)[Gal(b1-4)]GlcNAc(b1-3)Gal(b1-4)[Fuc(a1-3)]GlcNAc
# Method in brief: as §1
# [24] = target: Fuc(a1-3)[Gal(b1-4)]GlcNAc(b1-3)Gal(b1-4)[Fuc(a1-3)]GlcNAc(b1-3)Gal(b1-4)[Fuc(a1-3)]GlcNAc
# Method in brief: as §1
# [25] = target: Fuc(a1-3)[Gal(b1-4)]GlcNAc(b1-3)GalNAc
# Method in brief: as §1
# [26] = target: Fuc(a1-3)[Gal(b1-4)]GlcNAc(b1-6)GalNAc
# Method in brief: as §1
# [27] = target: Fuc(a1-3)[Gal(b1-4)]GlcNAc(b1-6)[Gal(b1-3)GlcNAc(b1-3)]Gal(b1-4)Glc
# Method in brief: as §1
# [28] = target: Fuc(a1-3)[Gal(b1-4)]GlcNAc6S
# Method in brief: as §1
# [29] = target: Fuc(a1-3)[Gal3S(b1-4)]Glc
# Method in brief: as §1
# [30] = target: Fuc(a1-3)[Gal3S(b1-4)]GlcNAc
# Method in brief: as §1
# [31] = target: Fuc(a1-3)[Gal3S(b1-4)]GlcNAc6S
# Method in brief: as §1
# [32] = target: Fuc(a1-3)[GalNAc(b1-4)]GlcNAc
# Method in brief: as §1
# [33] = target: Fuc(a1-3)[GalNAc(b1-4)]GlcNAc6S
# Method in brief: as §1
# Fuc(a1-4)GlcNAc = target: Fuc(a1-4)GlcNAc
# Method in brief: as §1
# Fuc(b1-3)GlcNAc = target: Fuc(b1-3)GlcNAc
# Method in brief: as §1
# Gal(a1-2)Gal = target: Gal(a1-2)Gal
# Method in brief: as §1
binder,measurement,setting,value
B1,glycan array binding signal (z-score),[1],0.137
same,glycan array binding signal (z-score),[2],-0.223
same,glycan array binding signal (z-score),[3],0.062
same,glycan array binding signal (z-score),[4],-0.204
same,glycan array binding signal (z-score),[5],-0.268
same,glycan array binding signal (z-score),[6],-0.334
same,glycan array binding signal (z-score),[7],-0.23
same,glycan array binding signal (z-score),[8],-0.109
same,glycan array binding signal (z-score),[9],0.129
same,glycan array binding signal (z-score),[10],-0.064
same,glycan array binding signal (z-score),[11],-0.323
same,glycan array binding signal (z-score),[12],-0.219
same,glycan array binding signal (z-score),[13],0.042
same,glycan array binding signal (z-score),[14],0.87
same,glycan array binding signal (z-score),[15],-0.308
same,glycan array binding signal (z-score),[16],-0.257
same,glycan array binding signal (z-score),Fuc(a1-3)GlcNAc,-0.349
same,glycan array binding signal (z-score),[17],0.122
same,glycan array binding signal (z-score),[18],-0.254
same,glycan array binding signal (z-score),[19],-0.272
same,glycan array binding signal (z-score),[20],-0.094
same,glycan array binding signal (z-score),[21],0.273
same,glycan array binding signal (z-score),[22],-0.069
same,glycan array binding signal (z-score),[23],-0.034
same,glycan array binding signal (z-score),[24],-0.152
same,glycan array binding signal (z-score),[25],0.226
same,glycan array binding signal (z-score),[26],0.176
same,glycan array binding signal (z-score),[27],-0.325
same,glycan array binding signal (z-score),[28],0.216
same,glycan array binding signal (z-score),[29],-0.001
same,glycan array binding signal (z-score),[30],-0.229
same,glycan array binding signal (z-score),[31],0.103
same,glycan array binding signal (z-score),[32],-0.095
same,glycan array binding signal (z-score),[33],0.068
same,glycan array binding signal (z-score),Fuc(a1-4)GlcNAc,0.178
same,glycan array binding signal (z-score),Fuc(b1-3)GlcNAc,-0.293
same,glycan array binding signal (z-score),Gal(a1-2)Gal,-0.249
